{
  "source": "PubChem BioAssay (Tox21)",
  "key": {"[1]": {"biological_target": "Glucocorticoid receptor (Homo sapiens) (UniProt P04150)", "sequence (P04150 whole entry, looked up)": "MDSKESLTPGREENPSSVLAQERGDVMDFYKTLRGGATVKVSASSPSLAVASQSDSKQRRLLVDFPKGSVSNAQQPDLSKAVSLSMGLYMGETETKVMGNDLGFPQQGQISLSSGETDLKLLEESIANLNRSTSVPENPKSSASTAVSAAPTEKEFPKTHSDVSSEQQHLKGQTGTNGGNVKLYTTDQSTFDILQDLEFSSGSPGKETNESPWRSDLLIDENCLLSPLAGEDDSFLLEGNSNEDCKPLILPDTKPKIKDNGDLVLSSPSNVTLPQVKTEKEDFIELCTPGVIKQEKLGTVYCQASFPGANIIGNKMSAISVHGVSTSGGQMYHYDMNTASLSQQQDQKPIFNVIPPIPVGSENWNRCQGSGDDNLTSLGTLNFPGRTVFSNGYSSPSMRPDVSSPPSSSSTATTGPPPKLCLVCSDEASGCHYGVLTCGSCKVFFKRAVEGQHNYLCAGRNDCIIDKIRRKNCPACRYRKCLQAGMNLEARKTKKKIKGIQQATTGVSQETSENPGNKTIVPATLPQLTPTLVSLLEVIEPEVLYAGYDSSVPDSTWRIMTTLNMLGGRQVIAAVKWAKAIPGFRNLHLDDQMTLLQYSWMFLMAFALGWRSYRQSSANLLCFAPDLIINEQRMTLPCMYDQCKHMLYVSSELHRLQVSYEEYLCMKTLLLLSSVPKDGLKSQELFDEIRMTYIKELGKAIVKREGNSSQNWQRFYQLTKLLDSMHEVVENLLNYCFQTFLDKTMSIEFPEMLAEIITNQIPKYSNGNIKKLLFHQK", "experiment": "qHTS assay to identify small molecule antagonists of the glucocorticoid receptor (GR) signaling pathway (AID 720692; active = well fitted inhibition curve with a large enough effect in the signal ratio in the repeat runs, not every such curve was filed as active; inconclusive = weak or mixed curves, or effect the other way; inactive = no such curve, though single readings can be large or run the other way; the % refers to the signal ratio; note: % is set by controls: 0 for no effect and ±100 for the full control effect)", "settings": "GR-bla HeLa, beta-lactamase FRET ratio, dexamethasone-stimulated, 18 h", "method_in_brief": "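Dexamethasone (5 nM final) stimulated a stably integrated GRE-beta-lactamase reporter in HeLa cells during 18 h co-incubation with compounds; signal was quantified as fluorescence intensity of B/G FRET substrate after 2 h.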"}, "[2]": {"biological_target": "Peroxisome proliferator-activated receptor delta (Homo sapiens) (UniProt Q03181)", "sequence (Q03181 whole entry, looked up)": "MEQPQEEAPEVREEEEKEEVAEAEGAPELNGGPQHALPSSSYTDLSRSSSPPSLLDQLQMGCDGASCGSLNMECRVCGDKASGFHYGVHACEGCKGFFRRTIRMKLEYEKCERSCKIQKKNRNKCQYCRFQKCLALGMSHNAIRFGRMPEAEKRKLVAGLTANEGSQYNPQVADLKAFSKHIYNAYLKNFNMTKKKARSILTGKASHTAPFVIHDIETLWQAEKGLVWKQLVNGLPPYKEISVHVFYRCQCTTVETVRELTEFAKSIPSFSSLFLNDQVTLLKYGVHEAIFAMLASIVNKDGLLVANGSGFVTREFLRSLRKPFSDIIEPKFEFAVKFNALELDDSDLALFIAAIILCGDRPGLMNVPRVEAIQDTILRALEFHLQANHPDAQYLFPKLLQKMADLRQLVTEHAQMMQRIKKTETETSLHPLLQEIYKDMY", "experiment": "qHTS assay to identify small molecule antagonists of the peroxisome proliferator-activated receptor delta (PPARd) signaling pathway (AID 743215; active = well fitted inhibition curve with a large enough effect in the signal ratio in the repeat runs, not every such curve was filed as active; inconclusive = weak or mixed curves, or effect the other way; inactive = no such curve, though single readings can be large or run the other way; the % refers to the signal ratio; note: potency is the fitted concentration of half-maximal effect; for ratio activity, negative = inhibition: % is set by controls: 0 for no effect and ±100 for the full control effect)", "settings": "HEK293H PPARd-UAS-bla, beta-lactamase FRET ratio, antagonist, 17 h; ratio activity, negative = inhibition: at 62 µM (top of the series) unless noted", "method_in_brief": "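With L165041 present at 300 nM final, compounds were incubated 17 h at 37 C on PPARd UAS-bla HEK293H cells. A FRET-based beta-lactamase substrate was then applied for 2 h at room temperature and fluorescence intensity recorded.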"}, "[3]": {"biological_target": "Vitamin D3 receptor (Homo sapiens) (UniProt P11473)", "sequence (P11473 whole entry, looked up)": "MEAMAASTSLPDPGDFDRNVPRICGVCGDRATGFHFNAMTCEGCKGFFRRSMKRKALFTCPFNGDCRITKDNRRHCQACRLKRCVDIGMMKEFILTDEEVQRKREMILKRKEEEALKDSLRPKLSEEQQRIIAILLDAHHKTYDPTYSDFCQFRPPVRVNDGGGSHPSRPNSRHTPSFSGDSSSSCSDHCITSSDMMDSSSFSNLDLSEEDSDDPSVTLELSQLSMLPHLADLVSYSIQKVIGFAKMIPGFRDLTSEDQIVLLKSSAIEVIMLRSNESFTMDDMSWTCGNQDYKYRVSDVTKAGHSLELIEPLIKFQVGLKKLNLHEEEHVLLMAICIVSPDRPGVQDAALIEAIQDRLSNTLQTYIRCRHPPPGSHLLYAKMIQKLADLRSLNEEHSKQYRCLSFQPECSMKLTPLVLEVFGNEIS", "experiment": "qHTS assay to identify small molecule antagonists of the vitamin D receptor (VDR) signaling pathway (AID 743223; active = well fitted inhibition curve with a large enough effect in the signal ratio in the repeat runs, not every such curve was filed as active; inconclusive = weak or mixed curves, or effect the other way; inactive = no such curve, though single readings can be large or run the other way; the % refers to the signal ratio; note: potency is the fitted concentration of half-maximal effect; for activity change, negative = inhibition: % is set by controls: 0 for no effect and ±100 for the full control effect)", "settings": "VDR-UAS-bla HEK293T, beta-lactamase FRET ratio, 16 h; activity change, negative = inhibition: at 61 µM (top of the series) unless noted", "method_in_brief": "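Antagonist mode uses 1alpha,25-dihydroxyvitamin D3 at 3 nM final as stimulus. VDR-bla cells receive compounds in DMSO, incubate 16 h at 37C, then a beta-lactamase FRET substrate for 2 h at room temperature before fluorescence measurement.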"}, "[4]": {"biological_target": "Luciferin 4-monooxygenase (Photinus pyralis) (UniProt P08659)", "sequence (P08659 whole entry, looked up)": "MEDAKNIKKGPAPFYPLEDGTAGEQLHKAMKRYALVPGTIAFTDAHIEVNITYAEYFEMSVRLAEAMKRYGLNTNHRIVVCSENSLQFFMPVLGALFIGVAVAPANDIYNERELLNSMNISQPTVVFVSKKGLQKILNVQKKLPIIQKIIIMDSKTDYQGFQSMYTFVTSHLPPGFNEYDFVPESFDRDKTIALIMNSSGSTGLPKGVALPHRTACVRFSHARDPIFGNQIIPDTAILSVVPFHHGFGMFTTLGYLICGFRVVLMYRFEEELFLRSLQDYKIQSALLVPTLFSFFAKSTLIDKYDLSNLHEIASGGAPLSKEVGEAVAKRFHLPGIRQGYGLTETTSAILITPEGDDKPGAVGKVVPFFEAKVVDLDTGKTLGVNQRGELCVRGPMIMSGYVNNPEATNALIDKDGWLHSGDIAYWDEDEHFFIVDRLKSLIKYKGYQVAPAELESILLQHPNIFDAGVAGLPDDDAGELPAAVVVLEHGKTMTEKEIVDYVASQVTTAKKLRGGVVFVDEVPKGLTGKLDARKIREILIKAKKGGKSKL", "experiment": "qHTS assay to identify small molecule inhibitors of firefly luciferase (AID 1224835); note: % is set by controls: 0 for no effect and ±100 for the full control effect; nearly all actives have a fitted effect of over 25% in size", "method_in_brief": "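Quantitative HTS format; KM concentrations of both substrates. Purified P. pyralis FLuc activity quantified from luminescence images.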"}, "[5]": {"biological_target": "Cytochrome P450 2C9 (Homo sapiens) (UniProt P11712)", "sequence (P11712 whole entry, looked up)": "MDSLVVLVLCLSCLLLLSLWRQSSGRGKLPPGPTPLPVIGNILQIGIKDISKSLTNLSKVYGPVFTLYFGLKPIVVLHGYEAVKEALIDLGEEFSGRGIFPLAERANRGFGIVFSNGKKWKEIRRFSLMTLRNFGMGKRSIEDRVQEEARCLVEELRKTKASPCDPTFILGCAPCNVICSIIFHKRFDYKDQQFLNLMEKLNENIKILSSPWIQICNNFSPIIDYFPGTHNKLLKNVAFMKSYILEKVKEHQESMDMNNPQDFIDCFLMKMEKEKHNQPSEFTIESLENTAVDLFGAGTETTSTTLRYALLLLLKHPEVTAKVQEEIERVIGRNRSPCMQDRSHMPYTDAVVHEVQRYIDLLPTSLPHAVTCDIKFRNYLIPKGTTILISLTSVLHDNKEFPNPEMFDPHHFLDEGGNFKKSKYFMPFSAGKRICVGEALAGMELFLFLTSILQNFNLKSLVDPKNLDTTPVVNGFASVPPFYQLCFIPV", "experiment": "Cytochrome P450 Family 2 Subfamily C Member 9 (CYP2C9) small molecule antagonists: luciferase reporter qHTS assay (AID 1671198); note: potency is the fitted concentration of half-maximal effect; nearly all actives have a fitted effect of over 50% in size", "method_in_brief": "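CYP2C9 activity was measured with a P450-Glo proluciferin substrate. Enzyme–substrate mix was held with compound for 10 min at room temperature, then NADPH regeneration solution was added for 1 h at 37C. Luciferin product was read as luminescence.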"}, "[6]": {"biological_target": "Cytochrome P450 1A2 (Homo sapiens) (UniProt P05177)", "sequence (P05177 whole entry, looked up)": "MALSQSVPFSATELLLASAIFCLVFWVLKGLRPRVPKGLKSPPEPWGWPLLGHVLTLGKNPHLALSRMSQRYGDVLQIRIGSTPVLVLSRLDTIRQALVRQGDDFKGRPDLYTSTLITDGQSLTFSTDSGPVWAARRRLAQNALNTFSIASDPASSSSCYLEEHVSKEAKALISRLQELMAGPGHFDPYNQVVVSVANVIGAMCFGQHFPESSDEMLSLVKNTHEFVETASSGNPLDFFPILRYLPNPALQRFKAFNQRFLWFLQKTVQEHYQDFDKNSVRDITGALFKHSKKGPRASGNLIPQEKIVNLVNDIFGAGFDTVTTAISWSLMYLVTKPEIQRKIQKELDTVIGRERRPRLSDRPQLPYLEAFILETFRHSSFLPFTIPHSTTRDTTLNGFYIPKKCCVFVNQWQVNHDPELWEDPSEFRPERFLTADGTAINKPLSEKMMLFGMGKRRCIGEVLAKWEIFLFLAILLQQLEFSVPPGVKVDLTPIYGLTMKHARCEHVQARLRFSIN", "experiment": "Cytochrome P450 Family 1 Subfamily A Member 2 (CYP1A2) small molecule antagonists: luciferase reporter qHTS assay (AID 1671199); note: nearly all actives have a fitted effect of over 50% in size; note: potency is the fitted concentration of half-maximal effect", "method_in_brief": "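CYP1A2 turnover of a luminogenic substrate was quantified after 1 h with NADPH regeneration at room temperature. Furafylline served as positive control.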"}, "[7]": {"experiment": "qHTS assay for small molecule disruptors of the mitochondrial membrane potential (AID 720635); note: potency is the fitted concentration of half-maximal effect", "settings": "HepG2 mitochondrial membrane potential, Mito-MPS dye ratio; ratio activity, negative = MMP loss: at 83.2 µM (top of the series) unless noted", "method_in_brief": "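HepG2 cells (2,000/well) attached overnight at 37C, then took compound for 1 hr at 37C, 5% CO2. Mito-MPS dye was added for 30 min; fluorescence was read at 490/535 nm (monomers) and 540/590 nm (aggregates).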"}, "[8]": {"experiment": "qHTS assay to identify small molecule antagonists of the estrogen related receptor (ERR) signaling pathway from Tox21 library - cell viability counter screen (AID 1224834); note: % is set by controls: 0 for no effect and ±100 for the full control effect; nearly all actives have a fitted effect of over 30% in size", "method_in_brief": "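CellTiter-Fluor fluorescence measured; ERR cells; 17.5 h compound incubation at 37 C; 30 min reagent step.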"}, "[9]": {"experiment": "qHTS assay to identify small molecule antagonists of the thyroid receptor (TR) signaling pathway - cell viability counter screen (AID 743064); note: % is set by controls: 0 for no effect and ±100 for the full control effect; nearly all actives have a fitted effect of over 50% in size", "settings": "GH3.TRE-Luc viability, CellTiter-Fluor, 24 h; activity change, negative = cytotoxic: at 70.3 µM (top of the series) unless noted", "method_in_brief": "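Fluorescence from CellTiter-Fluor, added after 23.5 h exposure at 37 °C, reported viability of GH3.TRE-Luc cells co-treated with compound and 1 nM T3. Measured in the same wells as the luciferase TR readout.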"}, "[10]": {"experiment": "qHTS assay for identifying genotoxic compounds that show differential cytotoxicity against isogenic chicken DT40 cell lines with known DNA damage response pathways - wild type cell line (AID 743012); note: nearly all actives have a fitted effect of over 60% in size; note: potency is the fitted concentration of half-maximal effect", "settings": "DT40 wild type chicken cells viability, CellTiter-Glo, 40 h; activity change, negative = cytotoxicity: at 68.4 µM (top of the series) unless noted", "method_in_brief": "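Using parental DT40 (300 cells/well), compounds delivered in DMSO incubate 40 h at 37 C/5% CO2. CellTiter-Glo reagent then stands 30 min at room temperature, and luminescence gives cell viability.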"}, "[11]": {"biological_target": "Peroxisome proliferator-activated receptor gamma (Homo sapiens) (UniProt P37231)", "sequence (P37231 whole entry, looked up)": "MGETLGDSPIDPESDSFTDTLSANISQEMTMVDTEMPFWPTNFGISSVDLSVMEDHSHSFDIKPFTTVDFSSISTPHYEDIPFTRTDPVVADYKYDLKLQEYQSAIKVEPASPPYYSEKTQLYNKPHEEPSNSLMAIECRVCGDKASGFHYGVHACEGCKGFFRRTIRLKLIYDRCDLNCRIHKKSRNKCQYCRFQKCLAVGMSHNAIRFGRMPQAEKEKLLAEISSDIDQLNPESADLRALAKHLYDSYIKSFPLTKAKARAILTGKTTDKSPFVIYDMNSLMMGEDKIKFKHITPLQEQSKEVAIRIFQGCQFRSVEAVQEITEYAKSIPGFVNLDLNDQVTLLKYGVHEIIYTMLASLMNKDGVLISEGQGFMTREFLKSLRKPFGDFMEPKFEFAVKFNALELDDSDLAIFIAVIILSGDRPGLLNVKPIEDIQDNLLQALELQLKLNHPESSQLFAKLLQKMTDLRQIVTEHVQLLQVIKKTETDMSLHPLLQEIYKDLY", "experiment": "qHTS assay to identify small molecule antagonists of the peroxisome proliferator-activated receptor gamma (PPARg) signaling pathway (AID 743191; calls by dose curve; note: % is set by controls: 0 for no effect and ±100 for the full control effect; nearly all actives have a fitted effect of over 30% in size)", "settings": "HEK293H PPARg-UAS-bla, beta-lactamase ratio, antagonist, 17 h; ratio activity, negative = inhibition: at 62.6 µM (top of the series) unless noted", "method_in_brief": "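GeneBLAzer PPARg UAS-bla HEK293H cells carrying a UAS-driven beta-lactamase reporter were plated at 3000 cells/well, preincubated 5 h at 37C, then given compound for 17 h at 37C; LiveBLAzer B/G FRET substrate was read after 1 h at room temperature.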"}, "[12]": {"biological_target": "Progesterone receptor (Homo sapiens) (UniProt P06401)", "experiment": "qHTS assay to identify small molecule antagonists of the progesterone receptor (PR) signaling pathway (AID 1346795; active = well fitted inhibition curve with a large enough effect in the signal ratio in the repeat runs, not every such curve was filed as active; inconclusive = weak or mixed curves; the % refers to the signal ratio; note: % is set by controls: 0 for no effect and ±100 for the full control effect)", "settings": "PR-UAS-bla HEK293T, beta-lactamase FRET ratio, 16 h; activity change, negative = inhibition: at 92.4 µM (top of the series) unless noted", "method_in_brief": "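Read-out is fluorescence from the LiveBLAzer B/G FRET substrate, cleaved by a UAS-controlled beta-lactamase in PR-UAS-bla HEK293T cells after 16 hr exposure to compound plus 1 nM promegestone (final), followed by 2 hr at room temperature.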"}, "[13]": {"experiment": "qHTS assay to identify small molecule antagonists of the progesterone receptor (PR) signaling pathway - cell viability counter screen (AID 1346798); note: % is set by controls: 0 for no effect and ±100 for the full control effect; nearly all actives have a fitted effect of over 50% in size", "method_in_brief": "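HEK293T PR-UAS-bla, 2% charcoal-stripped FBS; 4 hr pre-plate; cpd + R5020, 16 h 37C; LiveBLAzer read first; then CellTiter-Glo 30 min RT, luminescence.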"}, "[14]": {"experiment": "qHTS assay to identify small molecule agonists of the progesterone receptor (PR) signaling pathway - cell viability counter screen (AID 1346799; calls by dose curve; note: nearly all actives have a fitted effect of over 45% in size; note: potency is the fitted concentration of half-maximal effect)", "method_in_brief": "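Luminescence from CellTiter-Glo, added after the beta-lactamase FRET read in the same wells, gave cytotoxicity in PR-UAS-bla HEK293T cells treated with compounds for 16 hr at 37C.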"}, "[15]": {"experiment": "qHTS assay for small molecule agonists of the antioxidant response element (ARE) signaling pathway (AID 743202; active = well fitted activation curve with a large enough effect in the signal ratio in the repeat runs, not every such curve was filed as active; inconclusive = weak or mixed curves, or effect the other way; inactive = no such curve, though single readings can be large or run the other way; the % refers to the signal ratio; note: potency is the fitted concentration of half-maximal effect)", "settings": "HepG2 ARE-bla reporter, beta-lactamase FRET, 16 h; activation: at 73.3 µM (top of the series) unless noted", "method_in_brief": "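Compounds delivered in DMSO to ARE-bla HepG2 cells (2,000 cells/well, pre-incubated 5 h) and left 16 h at 37 C. LiveBLAzer B/G FRET substrate then added for 2 h at RT before fluorescence reading.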"}, "[16]": {"experiment": "qHTS assay for identifying genotoxic compounds that show differential cytotoxicity against isogenic chicken DT40 cell lines with known DNA damage response pathways - Rev3 mutant cell line (AID 743014); note: potency is the fitted concentration of half-maximal effect; nearly all actives have a fitted effect of over 55% in size", "settings": "chicken DT40 Rev3-/- viability, CellTiter-Glo, 40 h; activity, negative = cytotoxicity: at 68.4 µM (top of the series) unless noted"}, "[17]": {"experiment": "qHTS RealTime-Glo MT Cell Viability Assay in HEK293 cells - 24 hour (AID 1224886)", "method_in_brief": "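Reads taken at 0, 8, 16, 24, 32 and 40 h from the same wells. HEK293 cells (600/well) carried RealTime-Glo reagents from seeding, with compound added after a 5 h settle at 37 C.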"}, "[18]": {"biological_target": "Cytochrome P450 2D6 (Homo sapiens) (UniProt P10635)", "sequence (P10635 whole entry, looked up)": "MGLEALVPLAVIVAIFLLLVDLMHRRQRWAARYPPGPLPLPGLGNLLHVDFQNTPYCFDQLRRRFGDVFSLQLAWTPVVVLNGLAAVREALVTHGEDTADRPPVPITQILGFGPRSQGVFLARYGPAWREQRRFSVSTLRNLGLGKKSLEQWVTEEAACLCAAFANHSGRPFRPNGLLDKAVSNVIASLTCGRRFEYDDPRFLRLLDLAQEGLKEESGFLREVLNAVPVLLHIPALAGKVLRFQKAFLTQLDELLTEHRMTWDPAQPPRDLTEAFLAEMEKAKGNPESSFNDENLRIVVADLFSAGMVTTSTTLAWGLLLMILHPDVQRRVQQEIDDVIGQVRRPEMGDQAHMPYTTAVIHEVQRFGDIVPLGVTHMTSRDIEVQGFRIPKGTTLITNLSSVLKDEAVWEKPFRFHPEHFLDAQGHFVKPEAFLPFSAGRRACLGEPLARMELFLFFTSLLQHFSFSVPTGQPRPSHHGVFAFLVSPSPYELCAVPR", "experiment": "Cytochrome P450 Family 2 Subfamily D Member 6 (CYP2D6) small molecule antagonists: luciferase reporter qHTS assay (AID 1671196)", "method_in_brief": "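Luminescence (RLU), read 20 min after detection reagent, indicated CYP2D6 conversion of proluciferin to luciferin during a 1 h NADPH-dependent reaction at room temperature.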"}, "[19]": {"settings": "activity change, negative = inhibition: at 58.5 µM (top of the series) unless noted"}},
  "note": "This list was built around the results that the source calls inconclusive (neither active nor inactive); the mix of calls is not that of the screen. For part of these data: Potencies beside an inconclusive call are fits to weak or partial responses and may not hold up. Active and inactive are the calls of the source. Unless noted, calls come from the whole dose curve; as a rule, active = well fitted curve in the direction sought with a large enough effect in the repeat runs; inconclusive = weak or mixed curves; inactive = no such curve, though single readings can be large; an effect the other way counts as inactive or inconclusive. Tags give direction and shape of the fitted curve or compound fluorescence and quenching.",
  "data": [
    {"smiles": "CCC/C=C(\\C=O)CC", "values": [
      {"measurement": "activity change, negative = inhibition", "setting": "[1]; [19]", "value": "inconclusive: -11.2%"},
      {"measurement": "ratio activity, negative = inhibition", "setting": "[2]", "value": "inconclusive: -0.815% [fluorescent]"},
      {"measurement": "activity change, negative = inhibition", "setting": "[3]", "value": "inconclusive: -2.18%"},
      {"measurement": "Potency", "setting": "[4]", "value": "inactive"},
      {"measurement": "Potency", "setting": "[5]", "value": "active: 63.3 µM"},
      {"measurement": "Potency", "setting": "[6]", "value": "inconclusive: 39.9 µM [inhibitor, partial curve]"}
    ]},
    {"smiles": "N[C@@H](CCC(=O)N[C@@H](CS)C(=O)NCC(=O)O)C(=O)O", "values": [
      {"measurement": "Potency", "setting": "[7]", "value": "inactive"},
      {"measurement": "viability change, negative = cytotoxic", "setting": "[8]", "value": "inactive: 0.69% [at 19 µM]"}
    ]},
    {"smiles": "O=S(=O)(O)c1ccccc1", "values": [
      {"measurement": "Potency", "setting": "[7]", "value": "inconclusive: 68.4 µM [activator, partial curve, poor fit] and inactive"},
      {"measurement": "Potency", "setting": "[1]; [19]", "value": "inactive"},
      {"measurement": "activity change, negative = cytotoxic", "setting": "[9]", "value": "inconclusive: 34.1%"},
      {"measurement": "Potency", "setting": "[3]", "value": "inconclusive: 21.8 µM [activator, single point]"},
      {"measurement": "activity change, negative = inhibition", "setting": "[3]", "value": "inconclusive: 9.51%"},
      {"measurement": "Potency", "setting": "[8]", "value": "inactive"}
    ]},
    {"smiles": "O=C(OCc1ccccc1)C(=O)OCc1ccccc1", "values": [
      {"measurement": "Potency", "setting": "[7]", "value": "inactive"},
      {"measurement": "Potency", "setting": "[1]; [19]", "value": "inactive"},
      {"measurement": "Potency", "setting": "[10]", "value": "inactive"},
      {"measurement": "Potency", "setting": "[11]", "value": "inactive"},
      {"measurement": "Potency", "setting": "[3]", "value": "inactive"},
      {"measurement": "Potency", "setting": "[8]", "value": "inactive"},
      {"measurement": "activity change, negative = inhibition", "setting": "[12]", "value": "inconclusive: 13.5%"},
      {"measurement": "Potency", "setting": "[13]", "value": "inactive"},
      {"measurement": "Potency", "setting": "[14]", "value": "inactive"}
    ]},
    {"smiles": "Cc1cc(=O)[nH]c(=S)[nH]1", "values": [
      {"measurement": "activity change, negative = inhibition", "setting": "[1]; [19]", "value": "inconclusive: 12.9%"},
      {"measurement": "activity change, negative = inhibition", "setting": "[1]; at 58.5 µM (top of the series)", "value": "inactive: 12.2%"},
      {"measurement": "activity change, negative = inhibition", "setting": "[1]; at 78.9 µM (top of the series)", "value": "inactive: 5.15%"},
      {"measurement": "Potency", "setting": "[11]", "value": "inactive"},
      {"measurement": "activation", "setting": "[15]", "value": "inconclusive: -4.37% [at 94.8 µM]"},
      {"measurement": "Potency", "setting": "[8]", "value": "inactive"},
      {"measurement": "Potency", "setting": "[14]", "value": "inconclusive: 2.17 µM [rising, full curve, poor fit]"},
      {"measurement": "Potency", "setting": "[6]", "value": "inconclusive: 80.2 µM [inhibitor, single point]"}
    ]},
    {"smiles": "O=C(CCCN1CCN(c2ccccn2)CC1)c1ccc(F)cc1", "values": [
      {"measurement": "Potency", "setting": "[7]", "value": "inactive"},
      {"measurement": "Potency", "setting": "[10]", "value": "inconclusive: 33.5 µM [cytotoxic, single point]"},
      {"measurement": "Potency", "setting": "[16]", "value": "inconclusive: 11.9 µM [cytotoxic, partial curve, poor fit]"},
      {"measurement": "Potency", "setting": "[15]", "value": "inconclusive: 21.1 µM [rising, partial curve]"},
      {"measurement": "Potency", "setting": "[2]", "value": "inconclusive: 37.6 µM [rising, partial curve, poor fit]"},
      {"measurement": "Potency", "setting": "[8]", "value": "inactive"},
      {"measurement": "Potency", "setting": "[17]", "value": "inconclusive: 21.3 µM [cytotoxic, partial curve]"},
      {"measurement": "Potency", "setting": "[6]", "value": "inactive"}
    ]},
    {"smiles": "COc1nccnc1CC(C)C", "values": [
      {"measurement": "Potency", "setting": "[8]", "value": "inactive"},
      {"measurement": "Potency", "setting": "[18]", "value": "inactive"},
      {"measurement": "Potency", "setting": "[6]", "value": "inconclusive: 39.9 µM [inhibitor, partial curve]"}
    ]}
  ]
}
